The source gives no read counts; variants with many changes may rest on few reads.
B1: CPEB3 Ribozyme (parent)
chain: UAACAGGGGGCCACAGCAGAAGCGUUCACGUCGCAGCCCCUGUCAGAUUCUGGUGAAUCUGCGAAUUCUGCUGUAUAUCUC

Variants of: B1
Assay: self-cleavage, relative activity (ratio to wild type); higher = more cleavage; in vitro, sequencing
In short: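 Barcoded CPEB3 ribozyme mutants, produced by rounds of error-prone PCR, self-cleaved while being transcribed with T7 RNA polymerase for 5 hours at 37°C and during a subsequent 15 min DNase I step before EDTA was added. Sequencing of template-switched cDNA on Illumina gave cleaved and total reads, and DNA sequencing assigned barcodes to variants. Each variant's relative activity is its cleaved/total read fraction divided by the unmutated ribozyme's fraction, averaged across three batches. A variant needed a minimum of 5 reads.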

Row | Variant | self-cleavage
1 | UAACGGGGGGCCACAGCAGAAGCGCUCACGUCGCAGCCCCUGUCAGAUUCUGGUGAAUCUACGAAUUCUGCUGUAUAUCUC [A5G U25C G61A] | 0.65
2 | UAACGGGGGGCCACAGCAGAAGCGCUCACGCCGCAGCCCCUGACAGAUUCUGGUGAAUCAGCGAAUUCUGCUGUAUAUCUC [A5G U25C U31C U43A U60A] | 0.3
3 | UAACGGGGGGCCACAGCAGAAGCGCUCACGUCGCAGCCCCUGUCAGAUUCUGGUGAAUCUGCGAAUCCCGCUGUAUAUCUC [A5G U25C U67C U69C] | 0.31
4 | UAACGGGGGGCCACAGCAGAAGCGCUCACGUCGCAGCCCCUGUCAGAUUCUGGUGAAUCUGCGAAUUCUGCUGUAAAUCUC [A5G U25C U76A] | 0.12
5 | UAACGGGGGGCCACAGCAGAAGCGCUCACGUCGCAGCCCCUGUCAGAUUCUGGUGAAUCUGCGAAUUCUGCUGUAUAUCGC [A5G U25C U80G] | 0.5
6 | UAACGGGGGGCCACAGCAGAAGCGUACACGUCGCGGCCCCUGUCAGAUUCUGGUGAAUCUGCGAACUCUGCUGUUUAUCUC [A5G U26A A35G U66C A75U] | 0.43
7 | UAACGGGGGGCCACAGCAGAAGCGUACACGUCGCAGCCCCUGUCUGAUUCUGGUGAGUCUGCGAAUUCUGCUGUAUAUCCC [A5G U26A A45U A57G U80C] | 0.05
8 | UAACGGGGGGCCACAGCAGAAGCGUACACGUCGCAGCCCCUGUCAGAUUCUGGUGAAUCUGUGAAUUCUGCUGUAUAUCUC [A5G U26A C62U] | 0.17
9 | UAACGGGGGGCCACAGCAGAAGCGUACACGUCGCAGCCCCUGUCAGAUUCUGGCGAAUCUGCGUUUUCUGCUGUAUAUCUC [A5G U26A U54C A64U A65U] | 0.16
10 | UAACGGGGGGCCACAGCAGAAGCGUACACGUCGCAGCCCCUGUCAGAUUCUGGCGAAUCUGCGAAUUCUGCUGUGUAUCUC [A5G U26A U54C A75G] | 0.43
11 | UAACGGGGGGCCACAGCAGAAGCGUACACGUCGCAGCCCCUGUCAGAUUCUGGCGAAACUGCGGAUCCUGCUGUAUAUCUC [A5G U26A U54C U58A A64G U67C] | 0.08
12 | UAACGGGGGGCCACAGCAGAAGCGUACACGUCGCAGCCCCUGUCAGAUUCUGGUGAAUCUGCGAAUUCAGCUGUAUAUCUC [A5G U26A U69A] | 0.34
13 | UAACGGGGGGCCACAGCAGAAGCGUCCGCGUCGCAGCCCCUGUCAGGUUCUGGUGAAUCUGCGAUUUCUGCUGUAUAUCCC [A5G U26C A28G A47G A65U U80C] | 0.04
14 | UAACGGGGGGCCACAGCAGAAGCGUCCGCGUCGCAGCCCCUGUCAGAUUCUGGUGAAUCUGCGAAUUCUACUGUAUAUCUC [A5G U26C A28G G70A] | 0.43
15 | UAACGGGGGGCCACAGCAGAAGCGUCCACGUCGCGGCCCCUGUCAGACUCUGGUGAAUCUGCGAAUUCUGCUGUAUAUCUC [A5G U26C A35G U48C] | 0.16
16 | UAACGGGGGGCCACAGCAGAAGCGUCCACGUCGCAGCCCCUGUCAGCUUCUGGUGAAUCUGCGAAUUCUGCCGUAUAUCUC [A5G U26C A47C U72C] | 0.26
17 | UAACGGGGGGCCACAGCAGAAGCGUCCACGUCGCAGCCCCUGUCAGAUUCUGGUGAGUCUGCGAAUUCUGAUGUAUAUCUC [A5G U26C A57G C71A] | 0.25

Row | Variant | self-cleavage
18 | UAACGGGGGGCCACAGCAGAAGCGUCCACGUCGCAGCCCCUGUCAGAUUCUGGUGAAUCUGCGAGUUCUGCUGUAUAUCUC [A5G U26C A65G] | 0.15
19 | UAACGGGGGGCCACAGCAGAAGCGUCCACGUCGCAGUCCCUGUCAGAUUCUGGUGAAUCAGCGAAUUCUGCUGUAUAUCUC [A5G U26C C37U U60A] | 0.09
20 | UAACGGGGGGCCACAGCAGAAGCGUCCACGUCGCAGCCCAUGUCAGAUUCUGGUGAACCUGCGAAUUCUGCUGUAUAUCUC [A5G U26C C40A U58C] | 0.1
21 | UAACGGGGGGCCACAGCAGAAGCGUCCACGUCGCAGCCCCUGUCAGAUUCUGCUGAAUCUGCGAAUUCUGCUGUAUAUCUC [A5G U26C G53C] | 0.38
22 | UAACGGGGGGCCACAGCAGAAGCGUCCACGUCGCAGCCCCUGUCAGAUUCUGGUAAAUCUGCGAAUUCUGGUGUAUAUCUC [A5G U26C G55A C71G] | 0.43
23 | UAACGGGGGGCCACAGCAGAAGCGUCCACGUCGCAGCCCCCGUCAGAUUCUGGAGAAUCUGCGAAUUCUGCUGUAUAUCUC [A5G U26C U41C U54A] | 0.09
24 | UAACGGGGGGCCACAGCAGAAGCGUCCACGUCGCAGCCCCGGUCAGAUUCUGGUGAAUCUGCGAAUUCUACUGUAUAUCCC [A5G U26C U41G G70A U80C] | 0.37
25 | UAACGGGGGGCCACAGCAGAAGCGUCCACGUCGCAGCCCCUGUCAGACUCUGGAGAAUCUGCGAAUUCUGCUGUAUAUCUC [A5G U26C U48C U54A] | 0.27
26 | UAACGGGGGGCCACAGCAGAAGCGUCCACGUCGCAGCCCCUGUCAGAUUCCGGUGAAUCUGCAAAUUCUGCUGUAUAUCUC [A5G U26C U51C G63A] | 0.14
27 | UAACGGGGGGCCACAGCAGAAGCGUCCACGUCGCAGCCCCUGUCAGAUUCCGGCGAAUCUGCGAAUUCUGCUGUAUAUCUC [A5G U26C U51C U54C] | 0.63
28 | UAACGGGGGGCCACAGCAGAAGCGUUCACGACGUAGCCCCCGUCAGAUUCUGGUGAAUCUGCGAAUACUGCUGUAUUUCUC [A5G U31A C34U U41C U67A A77U] | 0.2
29 | UAACGGGGGGCCACAGCAGAAGCGUUCACGACGCAGCCCCUGUCAGAUUCUGGAGAAUCUGCGAAUUCUGCUGUAUAUCCC [A5G U31A U54A U80C] | 0.35
30 | UAACGGGGGGCCACAGCAGAAGCGUUCACGCCGCUGCCCCUGUCAGAUUCUGGUGAAUCUGCGGAUUCUGCUGUAUAUCCC [A5G U31C A35U A64G U80C] | 0.41
31 | UAACGGGGGGCCACAGCAGAAGCGUUCACGCCGCUGCCCCUGUCAGAUUCUGGUGAAUCUGCGAAUUCUGCUGUAUAACUC [A5G U31C A35U U78A] | 0.31
32 | UAACGGGGGGCCACAGCAGAAGCGUUCACGCCGCAGCCCCUGUCGGAUUCUGGUGAACCUGCGAAUUCUGCUGUAUAUCUC [A5G U31C A45G U58C] | 0.05
33 | UAACGGGGGGCCACAGCAGAAGCGUUCACGCCGCAGCCCCUGUCAGAUUUUGGUGAAUCUGCGAAUUCUGCUGUACAUCUC [A5G U31C C50U U76C] | 0.78
34 | UAACGGGGGGCCACAGCAGAAGCGUUCACGCCGCAGCCCCUGACAGAUUCUGGUGAAUCUGCGAAUUCUGCCGUAUGUCUC [A5G U31C U43A U72C A77G] | 0.2

Source: the RNAGym collection of RNA variant scans (doi:10.1093/nar/gkz1192)
